58 compounds from PubChem BioAssay AID463173 (ICCB-Longwood Screening Facility, Harvard Medical School, 2010) can be followed below.

Out of some 52,000 compounds screened, about 4,300 (8.3%) were called active. No stated cut-off is given here; in the data, active means survival mostly below about 52% (no sharp cut-off); inactive means mostly above about 56%. This is one part of the list.

This experiment relates to DeltatarO mutant. Put plainly: S. aureus survival, RN4220 and DeltatarO strains – OD600, teichoic acid synthesis inhibitors, primary screen (AID 463173). To be noted: S. aureus RN4220 wild type/DeltatarO growth, OD600, 18 h, stronger effect = lower value, screened at 18.75 µg/mL (by protocol).
As for `COCCNC(=O)CCn1c(=O)[nH]c2cc(OC)c(OC)cc2c1=O`, the survival is inactive: 90%. For the compound `COc1ccc(S(=O)(=O)Nc2ccc(S(=O)(=O)N3CCCC3)cc2)cc1C`, the survival is inactive: 78%.

For the compound `NC(=O)C1CCN(C(=O)C2CCN(S(=O)(=O)c3ccc(-n4cnnn4)cc3)CC2)CC1`, the survival is inactive: 97%. Turning to `COc1ccc(N2CCN(c3ncnc4onc(C)c34)CC2)cc1`, the survival is inactive: 67%. With `O=C(Nc1cc(-c2ccc(F)c(F)c2)no1)c1ccccc1F` the figure was inactive: 66%. `Cc1cccc(N2CCN(C(=O)C3CCCN(C(=O)c4cc5sccc5n4C)C3)CC2)c1C` (stereo not drawn): the survival was active: 53%. With `CCOc1ccccc1NC(=O)N1CCC(N2CCN(Cc3ccccc3)C(=O)C2=O)CC1` the figure was inactive: 69%. Turning to `NC(=O)c1ccccc1NC(=O)CSc1nc(N)cc(=O)[nH]1`, the survival was inactive: 76%. As to `CCc1cc2c(-c3ccccc3)cc(=O)oc2c2c1OCN(Cc1ccc(C)cc1)C2`, the survival was inactive: 60%. As for `CC(Oc1ccccc1F)C(=O)N1CCC(c2nc3ccccc3o2)CC1` (stereo not drawn), the figure is active: -1%; as for `O=c1c2ccccc2nc(-c2ccc(Cl)cc2)n1CCCCOc1ccc(F)cc1`, active: 45%; as for `CNC(=S)N(CCN1CCOCC1)Cc1cc2cc(C)c(Cl)cc2[nH]c1=O`, inactive: 87%. Regarding `COc1ccccc1NC(=O)C1=C(C)Nc2nc(SCc3ccccc3)nn2C1c1cccs1` (stereo not drawn), the survival was inactive: 114%. As for `O=C(NCCc1ccc(Cl)cc1)c1ccc2c(c1)N(Cc1ccccc1)C(=O)CS2`, the figure is active: 25%; as for `Cc1ccc(NC(=O)CN2C(=O)c3ccccc3Sc3ncccc32)c(C)c1`, inactive: 96%.

With `Cc1ccc(NC(=O)c2sc3nc[nH]c(=O)c3c2C)cc1C`, the survival was inactive: 86%. For `Cc1sc2ncnc(N3CCC(C)CC3)c2c1C`, the survival is inactive: 95%. Take `CCn1c(SCC(=O)Nc2cc(Cl)ccc2OC)nc2c([nH]c3ccccc32)c1=O`: the survival was inactive: 101%. As for `CC(=O)c1ccc(NC(=O)c2nn(C)c3c2COc2ccccc2-3)cc1`, the figure is inactive: 72%; as for `COc1ccc(CNC(=O)CCS(=O)(=O)c2cc3c4c(c2)CCN4C(=O)CC3)cc1`, inactive: 78%; as for `COC(=O)c1ccc(NC(=O)c2cc3cc4ccc(OC)c(Cl)c4nc3s2)cc1`, inactive: 98%. With `Cn1cc(C(=O)N2CCN(c3ccccc3)CC2)c(=O)c2cc(S(=O)(=O)N3CCCC3)ccc21` the figure was inactive: 133%; with `O=C(NC1CC(=O)N(c2ccc(F)cc2)C1)C(c1ccccc1)c1ccccc1` (stereo not drawn), inactive: 124%. As to `COc1ccc(-c2noc(CSc3nnc(-c4ccncc4)n3-c3ccc(OC)cc3)n2)cc1`, the survival is inactive: 92%.

Turning to `Cc1cccc(NC(=O)Cn2c(=O)oc3cc(S(=O)(=O)N4CCCCCC4)ccc32)c1`, the survival was inactive: 78%. Turning to `COC(=O)c1ccc(NC(=O)CCOc2ccccc2)cc1`, the survival was inactive: 69%. Take `Cc1ccc(Cn2c(Cc3ccccc3)nc3ccccc32)cc1`: the survival was active: -1%. As for `CN1C(=O)SC(N(CC(N)=O)c2ccccc2)C1=O` (stereo not drawn), the figure is inactive: 61%; as for `CCOc1ccc(CN2C(=O)c3ccccc3Sc3ccc(C(=O)NC4CCC(C)CC4)cc32)cc1` (stereo not drawn), inactive: 83%. As for `CCOC(=O)c1ccccc1NC(=O)CCc1c(C)nc2c(c1C)c(=O)n(C)c(=O)n2C`, the figure is inactive: 96%; as for `Cc1ccc(N(CC(=O)NCc2ccc(OC(C)C)cc2)S(=O)(=O)N(C)C)cc1`, inactive: 73%; as for `COc1ccccc1CCNC(=O)C1CCN(c2nc3ccccc3nc2C(F)(F)F)CC1`, inactive: 117%. For `COC(=O)c1ccccc1NC(=O)CSc1c2c(nc3ccc(Cl)cc13)CCCC2`, the survival was inactive: 86%. Regarding `Cc1cc(C)c(S(=O)(=O)Nc2ccc(-c3ccc(N4CCCCC4)nn3)cc2)cc1C`, the survival was inactive: 54%. With `COc1cccc(CNC(=O)C2CCCN(c3nnc(-n4c(C)ccc4C)s3)C2)c1` (stereo not drawn) the figure was inactive: 82%; with `O=C(NCC(c1cccnc1)N1CCN(Cc2ccccc2)CC1)C(=O)Nc1ccc(F)cc1` (stereo not drawn), inactive: 89%. Regarding `COCCNC(=O)c1ccc(NC(=O)N2CCCCc3ccccc32)cc1`, the survival is inactive: 58%. As for `CCOc1ccc(CNC(=O)CN2C(=O)CSc3c2c(C)nn3-c2ccccc2)cc1`, the figure is inactive: 78%; as for `COc1nc(N(C)C)nc(N(CN2C(=O)c3ccccc3C2=O)S(=O)(=O)c2ccc(C)cc2)n1`, inactive: 95%; as for `O=C(Nc1c(O)c2ccccc2oc1=O)c1ccccc1Cl`, inactive: 58%. With `Cc1ccc(CSc2nc3cccnc3n2Cc2nc(-c3ccccc3F)oc2C)cc1` the figure was inactive: 99%; with `CCOc1ccc(-n2nc3ccc(NC(=O)COc4ccccc4C)cc3n2)cc1`, inactive: 50%. As for `O=C(C1CC1)N1CCc2cc(Br)cc(S(=O)(=O)Nc3ccc(C(F)(F)F)cc3)c21`, the figure is active: 41%; as for `COc1ccc(S(=O)(=O)N(CCc2ccccc2)CC(=O)NCc2ccc(C)cc2)cc1`, inactive: 56%; as for `CCCC(=O)Nc1nnc(S(=O)(=O)N(C)c2ccccc2)s1`, inactive: 108%.

Take `CCC1CCCCN1C(=O)CSc1nc(-c2ccc(OC)cc2)cc(C(F)(F)F)n1` (stereo not drawn): the survival is active: 1%. In the case of `O=C(NC(=S)Nc1ccc(N2CCOCC2)cc1)c1ccccc1`, the survival is inactive: 76%. With `CCn1cc2nc(SCC(=O)Nc3cccc(Cl)c3C)n(Cc3ccc(Cl)cc3)c(=O)c2n1` the figure was inactive: 55%; with `CCOc1ccc(C(=O)Nc2ccc3nc(SCC(=O)N4CCCC4)sc3c2)cc1`, inactive: 62%; with `CCc1ccc(CNC(=O)c2cnc3sc(N4CCCCCC4)nn3c2=O)cc1`, inactive: 96%.

`CC(C)c1ccc(NC(=O)CN(C)S(=O)(=O)c2ccc3c(c2)n(C)c(=O)c(=O)n3C)cc1`: the survival was inactive: 85%. As for `CCOC(=O)N1CCN(CCC(=O)Nc2cc(C)ccc2C)CC1`, the figure is inactive: 71%. With `CCn1cnc2cc(NCc3ccc(N(C)C)cc3)ccc21` the figure was inactive: 72%; with `CCCCn1c(SCc2ccccc2C#N)nc2c(sc3ccccc32)c1=O`, inactive: 55%; with `Cc1ccc(-n2ncc3c(=O)n(Cc4cccc(C(F)(F)F)c4)cnc32)cc1C`, inactive: 93%.

Consider `c1ccn(-c2ccc(N3CCOCC3)cc2)c1`, for which the survival was inactive: 66%. With `COC(=O)C1=C(C)Nc2nc3ccccc3n2C1c1ccccc1` (stereo not drawn) the figure was inactive: 97%; with `CCOC(=O)Cn1c(=O)cc(C)c2c(C)nn(-c3cccc(F)c3)c21`, inactive: 81%.
